Hit rate of the full screen: of about 45,000 compounds, about 65 (0.1%) were called active. The call rests on the fitted dose curve; in most records, active means well fitted activation curve with a large enough effect; inconclusive means small, poorly fitted or top-dose-only effect; inactive means no such curve, though single readings can be large or run the other way. Some of the results follow.
Each compound was assayed against Galactocerebrosidase (Homo sapiens) (UniProt P54803) (assay: A Novel Cell-Based Assay to Identify Small Molecules for B -Galactocerebrosidase). Settings: 145M-Twi-hGALC-G270D cells (Twitcher mouse brain line with human GALC G270D), HMU-beta-Gal fluorescence, 48 h; series mostly up to 57.5 µM; activation: at the top concentration.
UniProt P54803, sequence (P54803 whole entry, looked up): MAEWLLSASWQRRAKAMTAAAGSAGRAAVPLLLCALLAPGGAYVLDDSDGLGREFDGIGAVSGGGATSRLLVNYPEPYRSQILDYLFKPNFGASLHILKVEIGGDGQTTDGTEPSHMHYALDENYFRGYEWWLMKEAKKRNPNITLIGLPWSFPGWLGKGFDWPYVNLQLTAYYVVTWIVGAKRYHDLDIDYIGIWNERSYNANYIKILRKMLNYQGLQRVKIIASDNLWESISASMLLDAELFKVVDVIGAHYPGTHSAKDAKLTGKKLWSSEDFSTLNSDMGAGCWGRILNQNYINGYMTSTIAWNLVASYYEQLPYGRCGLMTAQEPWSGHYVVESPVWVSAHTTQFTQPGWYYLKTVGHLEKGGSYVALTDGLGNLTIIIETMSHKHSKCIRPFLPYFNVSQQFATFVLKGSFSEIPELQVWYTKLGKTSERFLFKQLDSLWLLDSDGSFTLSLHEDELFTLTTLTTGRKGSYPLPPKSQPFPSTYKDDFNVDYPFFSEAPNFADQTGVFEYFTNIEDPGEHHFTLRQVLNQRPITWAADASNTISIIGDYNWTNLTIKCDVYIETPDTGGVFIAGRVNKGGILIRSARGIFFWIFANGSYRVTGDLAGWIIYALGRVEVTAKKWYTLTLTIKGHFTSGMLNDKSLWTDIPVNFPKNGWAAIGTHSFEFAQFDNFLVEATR
Method in brief: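 Mutant human GALC (G270D), stably expressed in a Twitcher mouse brain cell line lacking endogenous GALC, is measured in live-treated cells via 6-hexadecanoylamino-4-methylumbelliferyl-β-galactoside hydrolysis (0.1 mM final, pH 5.2) with fluorescent detection.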
Further: 0% is about no effect; nearly all actives have a fitted effect of over 65% in size.

activation, inactive:
Cc1ccc(NC(=O)CN2CCCN(Cc3cc(C)ccc3C)S2(=O)=O)c(Cl)c1 0.862%
CCS(=O)(=O)N1CC(=O)N(c2ccccc2C)C(C)(C(=O)NC2CCCCC2)C1 (configuration not stated) -10.5%
COCCCNC(=O)Cn1c(=O)n(-c2ccc(C)cc2)c(=O)c2c1c1cc(C)ccc1n2C 1.78%
CN(C)c1ccc(C(CNC(=O)COc2ccc(Cl)cc2)N2CCOCC2)cc1 (configuration not stated) -20.1%
Cc1ccc(Cl)cc1N1CCN(C(=O)c2cn(C3CCCCC3)c(=O)c3c2c2ccccc2n3C)CC1 -23.6%
COc1ccc(NC(=O)CSc2nnc(-c3ccc(C)cc3)o2)cc1 -9.29%
Cc1ccc(NC(=O)c2cc(S(=O)(=O)N3CCOCC3)c(Cl)cc2Cl)cc1 -2.75%
COCCNC(=O)CCC(=O)NNc1nc2ccccc2c2nc(-c3ccccc3)nn12 -16.7%
CCOc1ccc(NC(=O)CSc2ncc3c(n2)-c2ccccc2N(C)S3(=O)=O)cc1 -7.05%
Clc1ccccc1-c1nc(Nc2ccccc2)nc2ccc(Br)cc12 -5.15%
Cc1ccc(NC(=O)N2CCC(n3c(C)nc4cccnc43)CC2)c(Cl)c1 -13.5%
CCC(Oc1ccccc1)C(=O)Nc1nnc(S(=O)(=O)Nc2ccccc2)s1 (configuration not stated) -18.7%
CCc1ccc(CNC(=O)c2ccc(CSc3nc4ccncc4n3Cc3ccccc3)cc2)cc1 -5.19%
COc1ccc(CNC(=O)Nc2cn(CC(C)C)c(=O)c3ccccc23)c(OC)c1 -17.3%
Cc1cc(C)cc(NC(=O)C2CCN(S(=O)(=O)c3cccc4nonc34)CC2)c1 -10.7%
Nc1c2c(nc3ccccc13)CCCC2 -15.8%
CCCCC(CC)COC(=O)C(C#N)=C(c1ccccc1)c1ccccc1 (configuration not stated) -11.9%
CC(=O)c1ccc(N2CCN(C(=O)NCc3noc4ccc(C)cc34)CC2)cc1 -8.18%
COC(=O)CCc1sc(Nc2ccc(OC)cc2)nc1-c1ccc(OC)cc1 -9.27%
Cc1ccccc1NC(=O)CC1C(=O)NCCN1C(=O)c1cccc(Cl)c1 (configuration not stated) -10.7%
Cc1noc(-c2ccccc2OCC(=O)Nc2cccc([N+](=O)[O-])c2)n1 -7.92%
CCN1c2ccccc2-c2nc(SCC(=O)Nc3ccc(C)c(Cl)c3)ncc2S1(=O)=O -2.17%
CCOC(=O)c1ccccc1NC(=O)CSc1nc2ncccc2[nH]1 -3.65%
COc1ccc(-c2nnn3c2nc(N2CCCC(C)C2)c2ccccc23)cc1 (configuration not stated) -0.473%
Cc1ccc(C)c(N(C)C(=O)C2CCN(S(=O)(=O)c3cccc4nsnc34)CC2)c1 -8.43%
CC(=O)c1cc(C(=O)Nc2cccc(C)c2)c2ccccn12 -12.7%
COc1ccc(N2CCN(C(=O)CCS(=O)(=O)c3cc4c(cc3Cl)NC(=O)CO4)CC2)cc1 -12.8%

Source: PubChem BioAssay AID1159614 (National Center for Advancing Translational Sciences (NCATS), 2016)
